Data taken from the supplement of paper PMC3334620.
The full ranking holds about 33,000 sequences; the median of “E-score (-0.5 to 0.5)” is about -0.041, and the highest 2% start at about 0.37. The list shows a part of the results.

Molecular target: T1, Ecm22 (UniProt Q05958)
T1 sequence: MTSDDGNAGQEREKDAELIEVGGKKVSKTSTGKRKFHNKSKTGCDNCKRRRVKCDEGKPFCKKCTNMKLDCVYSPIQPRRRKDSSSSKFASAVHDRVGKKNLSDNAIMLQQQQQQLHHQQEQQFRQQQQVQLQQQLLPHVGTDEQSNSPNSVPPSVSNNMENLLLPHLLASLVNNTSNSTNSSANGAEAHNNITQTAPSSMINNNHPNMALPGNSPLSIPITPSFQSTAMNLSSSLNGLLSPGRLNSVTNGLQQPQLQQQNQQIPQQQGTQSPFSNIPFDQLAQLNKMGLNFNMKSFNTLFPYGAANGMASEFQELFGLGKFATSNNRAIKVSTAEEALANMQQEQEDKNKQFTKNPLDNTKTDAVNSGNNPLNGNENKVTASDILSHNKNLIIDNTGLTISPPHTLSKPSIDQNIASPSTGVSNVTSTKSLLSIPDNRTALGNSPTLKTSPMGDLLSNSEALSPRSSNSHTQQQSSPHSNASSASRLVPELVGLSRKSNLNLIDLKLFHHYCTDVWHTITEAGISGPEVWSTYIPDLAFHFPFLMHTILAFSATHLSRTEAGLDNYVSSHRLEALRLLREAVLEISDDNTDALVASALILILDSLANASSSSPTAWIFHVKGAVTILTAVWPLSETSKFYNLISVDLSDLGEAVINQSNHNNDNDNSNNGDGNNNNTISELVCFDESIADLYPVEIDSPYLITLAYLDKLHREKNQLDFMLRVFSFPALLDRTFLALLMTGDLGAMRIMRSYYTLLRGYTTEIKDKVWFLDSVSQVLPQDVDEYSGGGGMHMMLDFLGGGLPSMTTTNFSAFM
Experiment: PBM E-score (8-mer binding enrichment) (E-score (-0.5 to 0.5)); higher = stronger / more preferred TF binding; most listed sequences are background and not binding sites
Conditions: protein concentration: 200 nM; construct: GST-full length
How it was run: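 For each ungapped eight-base word taken together with its reverse complement, the Universal PBM Analysis Suite assigned an E-score. Binding data came from GST-tagged yeast transcription factors, applied at about 100-200 nM, on universal all-10-mer Agilent arrays made double-stranded by primer extension. Fluorescent anti-GST marked bound protein, and scans were normalised with masliner.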

Sequence | PBM E-score
AGAATTCT | 0.107
ATGTCTGG | -0.0247
GTAGTTTA | 0.0546
CCTTTTTC | -0.205
GAATAGCA | -0.0396
ACCCCGTA | 0.32
AAAAAAAC | -0.137
GAAACGAC | 0.41
CAAGGACG | -0.122
ACCTAACA | 0.149
GCTGCACA | -0.152
ACTTGAGG | -0.234
CGCCGGCA | -0.119
ACGGGCCA | -0.0769
CAAAGGCC | -0.162
CCCCTGCG | -0.11
GACTGTGC | -0.0661
CCGACCCA | 0.0621
AACAGTAC | 0.159
CTTGAGGC | -0.225
AAGTACGC | 0.0885
ATTGTACA | -0.0596
TTATGCAA | 0.0525
ACGCTGGC | 0.0814
ACTGAACG | 0.334

Sequence | PBM E-score
GTGACAGA | -0.0918
CGAATCCG | 0.227
CAGATATA | 0.029
CACGCTCC | -0.227
ATTCAACA | 0.117
AGCCTTTC | -0.136
GAAGTCAA | -0.0483
CCTTTAAC | 0.143
AATCCTTA | -0.151
ATTCGCGA | 0.292
CCCCCCCG | -0.179
AAAAGCCT | -0.337
ATAGTCAT | -0.125
GTGTATAA | -0.026
GCCCTCGC | 0.262
ATGTGGCG | -0.0824
CCCGGGCC | -0.131
CACACTCA | -0.0867
AATAGGGT | -0.0879
CCGACGCC | 0.0374
CCGACTGA | -0.0407
ATACACTA | -0.0519
AGCCTCCC | -0.249
ACACAAAG | 0.139
TCGAGCGA | 0.0676

Sequence | PBM E-score
CAAGTATG | -0.112
CCGCACAC | 0.0629
CAAATCAA | -0.0191
CCTGATTA | -0.137
AGATCGGA | 0.00079
AATTGTCC | -0.187
ACAGTACA | 0.033
ATTTCCGG | 0.107
GTGTGGCA | -0.334
ATCTTCAG | -0.0274
AAATTGGT | 0.171
CACCTTGG | -0.238
ACGTGGGC | -0.134
GCAGGCTA | -0.286
CTGCCGGA | -0.181
ATTACGCC | -0.0761
ATGGCTTC | -0.268
ACTGAGAC | -0.137
CTGCGAGC | 0.0428
TCGGTTAA | 0.387
CGGGTGGA | 0.0162
AAATATCC | 0.103
ACGCCGAC | 0.101
ATCTGTCA | -0.0758
AACCGAAT | 0.284

Sequence | PBM E-score
GCAAGTAA | -0.172
CTCGATTC | 0.0368
CCGGCTCA | -0.267
ATGCCGAG | 0.257
AAGGCGCG | 0.029
ATTCCAAT | -0.0645
ATGCAATC | -0.0621
CGTATGAA | 0.415
ATGGACTA | -0.073
AAACCCGC | -0.125
CACACGAA | 0.204
CTTCTTTA | -0.0983
ATACCTTC | -0.129
TGGTTACA | 0.121
ACAGACTA | -0.0643
ACCAGAAG | -0.0736
ACCTTCAG | -0.0269
CAGGCCGC | -0.141
GTAAATTA | 0.0338
CCTTATAG | -0.0105
ACCCTTCA | -0.151
TAGATTGA | 0.0498
ACTAAGCC | -0.104
CCATATCG | 0.113
GAAACAGA | 0.0398

Sequence | PBM E-score
TACCCACA | -0.00174
TCTCCCCA | -0.188
TAAGGGTA | -0.102
GGCCGGTA | -0.08
ATGCCGGA | 0.0467
CAATAACC | 0.0176
GGGGTCAC | -0.152
CAAGCGGG | -0.0323
AACTACTT | -0.235
AGAAATTA | 0.00273
CAACGAAC | 0.272
AGAGGAGA | -0.18
CTGCCGGC | -0.237
GTGGAACA | 0.0214
CTACCTAC | -0.0219
CACAGGTA | 0.0392
CTAGTTAA | -0.153
CTGCGGAC | -0.0604
ACTGCAGA | -0.149
GGGTCCAC | -0.295
AACTCGGC | 0.127
ACCACAGC | -0.0473
CTGGAAAA | -0.16
TACTAAGA | 0.0366
CGAGTCCG | 0.158

Sequence | PBM E-score
AAGACTGG | -0.117
CGACAGAG | 0.144
CAGGGGTC | -0.119
CCTCGTCG | 0.218
TGGAGCCA | -0.159
AGATAGGC | 0.0141
AGCACGGG | -0.123
CAATAGAG | 0.0477
ACGTGCCG | 0.0127
CATACCTA | -0.235
GGAGCAGA | -0.0547
AGAAGGTC | -0.15
GCCGAGGA | 0.146
GAGGTGGA | -0.234
AGAAGTAT | -0.0129
CGCGTAGA | 0.107
ACCGAAGG | 0.107
TCGTGACA | 0.0412
CCCCCGGG | -0.0719
ACATCGGT | -0.092
AAGAGCAA | -0.182
CCCATAGA | -0.304
GTGCGCAC | 0.182
CGCTAAAA | 0.191
ACCGCCAG | -0.0533

Sequence | PBM E-score
GAAAGTAA | -0.0194
AAGTGACG | -0.0692
CTTGACCC | -0.189
GTTCTATA | 0.222
AGATCAGG | -0.0459
AGCGTCAC | -0.0093
CTTCATGC | 0.0867
AATGACAT | -0.108
TAAAGTAA | -0.0971
CATTGAAC | 0.185
ACCTCAAG | -0.218
CGCATATA | 0.145
CCCCCCTA | -0.272
GGCGCGTA | 0.077
GATATTCC | 0.0383
TATGCACA | -0.0515
ACTTTACC | 0.0956
TGGGATAA | -0.319
TCCTAGGA | -0.305
GAGTCGAA | 0.111
ATGATTCC | -0.0641
CTTCAGGA | -0.0259
